Binding data for three molecules are collected here from article PMC6633205, “Cus2 enforces the first ATP-dependent step of splicing by binding to yeast SF3b1 through a UHM–ULM interaction” (RNA, 2019).

Changes are numbered by the printed parent chain. Numbers in names are those of the source. No constants are given. Whether binding was seen depends on the method and setting. Some entries that bind do so weakly or less than the wild type. For some assays here: Tags and fused reporters may be left off the sequences shown.

Assay [1] concerns the target T1, Cus2 UHM (146-285) fused to the GAL4 DNA-binding domain (S. cerevisiae) (UniProt P53830).
T1 sequence: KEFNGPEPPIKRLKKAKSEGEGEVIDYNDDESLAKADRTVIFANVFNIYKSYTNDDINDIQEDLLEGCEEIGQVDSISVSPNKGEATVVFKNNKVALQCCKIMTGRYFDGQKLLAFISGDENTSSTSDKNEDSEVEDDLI
As to the kind of experiment: two-hybrid; Cus2 proteins fused to the GAL4 DNA-binding domain (pAS2) against Hsh155 fused to the GAL4 activation domain (pACT) in yeast strain y190; GAL/UAS-HIS3 reporter, growth on SCD -Leu -Trp -His with 25 mM 3-AT.

For assay [2], the target named is T2, Cus2, full length, fused to the GAL4 DNA-binding domain (S. cerevisiae) (UniProt P53830).
T2 sequence: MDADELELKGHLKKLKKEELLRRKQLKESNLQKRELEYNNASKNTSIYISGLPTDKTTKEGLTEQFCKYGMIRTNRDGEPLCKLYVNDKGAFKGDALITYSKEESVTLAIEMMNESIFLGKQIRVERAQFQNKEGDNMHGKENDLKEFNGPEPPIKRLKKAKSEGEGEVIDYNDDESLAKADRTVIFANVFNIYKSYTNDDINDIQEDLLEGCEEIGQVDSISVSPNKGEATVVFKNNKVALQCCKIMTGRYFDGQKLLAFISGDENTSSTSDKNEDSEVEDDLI
The assay is described as above.

Assay [3] concerns the target T3, Tat-SF1 (1-383) fused to the GAL4 DNA-binding domain (human) (UniProt O43719).
T3 sequence: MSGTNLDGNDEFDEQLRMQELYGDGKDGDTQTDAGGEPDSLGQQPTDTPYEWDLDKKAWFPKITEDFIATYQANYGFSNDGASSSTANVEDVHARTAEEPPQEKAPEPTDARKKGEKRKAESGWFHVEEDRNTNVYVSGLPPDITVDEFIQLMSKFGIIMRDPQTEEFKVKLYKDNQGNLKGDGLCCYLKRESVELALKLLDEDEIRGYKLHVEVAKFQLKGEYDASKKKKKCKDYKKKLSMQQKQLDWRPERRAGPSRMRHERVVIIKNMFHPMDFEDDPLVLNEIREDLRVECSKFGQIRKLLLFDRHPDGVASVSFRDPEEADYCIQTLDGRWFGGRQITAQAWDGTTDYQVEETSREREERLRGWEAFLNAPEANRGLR
As to the kind of experiment: two-hybrid; Tat-SF1 (1-383) fused to the GAL4 DNA-binding domain against Hsh155 fused to the GAL4 activation domain, in a strain with the CUS2 open reading frame deleted; growth on SCD -Leu -Trp -His with 25 mM 3-AT.

The target in assay [4] is T4, Tat-SF1 UHM (residues 260-353) (human) (UniProt O43719).
T4 sequence: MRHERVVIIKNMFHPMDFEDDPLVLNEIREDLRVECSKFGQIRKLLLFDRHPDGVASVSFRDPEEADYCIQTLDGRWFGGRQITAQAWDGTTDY
As to the kind of experiment: crystal structure; Tat-SF1 UHM–Hsh155 ULM complex in a 1:1.2 molar ratio, 18 mg/mL, vapor diffusion at 277 K; 2.0 Å; both purified.

B1: Hsh155, full length, wild type, fused to the GAL4 activation domain (protein, UniProt P49955 1-971)
chain: MSHPIQFVNANNSDKSHQLGGQYSIPQDLRENLQKEAARIGENEKDVLQEKMETRTVQNREDSYHKRRFDMKFEPDSDTQTVTSSENTQDAVVPRKRKSRWDVKGYEPPDESSTAVKENSDSALVNVEGIHDLMFFKPSDHKYFADVISKKPIDELNKDEKKERTLSMLLLKIKNGNTASRRTSMRILTDKAVTFGPEMIFNRLLPILLDRSLEDQERHLMIKTIDRVLYQLGDLTKPYVHKILVVAAPLLIDEDPMVRSTGQEIITNLSTVAGLKTILTVMRPDIENEDEYVRNVTSRAAAVVAKALGVNQLLPFINAACHSRKSWKARHTGIKIVQQIGILLGIGVLNHLTGLMSCIKDCLMDDHVPVRIVTAHTLSTLAENSYPYGIEVFNVVLEPLWKGIRSHRGKVLSSFLKAVGSMIPLMDPEYAGYYTTEAMRIIRREFDSPDDEMKKTILLVLQKCSAVESITPKFLREEIAPEFFQKFWVRRVALDRPLNKVVTYTTVTLAKKLGCSYTIDKLLTPLRDEAEPFRTMAVHAVTRTVNLLGTADLDERLETRLIDALLIAFQEQTNSDSIIFKGFGAVTVSLDIRMKPFLAPIVSTILNHLKHKTPLVRQHAADLCAILIPVIKNCHEFEMLNKLNIILYESLGEVYPEVLGSIINAMYCITSVMDLDKLQPPINQILPTLTPILRNKHRKVEVNTIKFVGLIGKLAPTYAPPKEWMRICFELLELLKSTNKEIRRSANATFGFIAEAIGPHDVLVALLNNLKVQERQLRVCTAVAIGIVAKVCGPYNVLPVIMNEYTTPETNVQNGVLKAMSFMFEYIGNMSKDYIYFITPLLEDALTDRDLVHRQTASNVITHLALNCSGTGHEDAFIHLMNLLIPNIFETSPHAIMRILEGLEALSQALGPGLFMNYIWAGLFHPAKNVRKAFWRVYNNMYVMYQDAMVPFYPVTPDNNEEYIEELDLVL
On to B1, for which the binding entry in assay [1], in assay [2] and in assay [3] was “binds” in each case.

B2: Hsh155 R100D, W101A fused to the GAL4 activation domain (natural protein, S. cerevisiae, UniProt P49955 1-971, looked up)
chain: B1 chain with R100D, W101A
In the case of B2, the binding result in assay [2] is listed as “no binding”. With KSRWDVKGYEPPDES (peptide, UniProt P49955 98-112) [Hsh155 ULM (residues 98-112) of the crystal structure], the binding result in assay [4] was “binds”.
